Test [1] has as its target T1, GST-Id2 (expressed in PC12 cells) (UniProt P41136).
T1 sequence: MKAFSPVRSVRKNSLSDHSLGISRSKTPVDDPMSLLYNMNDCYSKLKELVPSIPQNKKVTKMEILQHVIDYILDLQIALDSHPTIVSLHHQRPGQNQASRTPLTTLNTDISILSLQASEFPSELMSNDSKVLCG
Briefly: pull-down; PC12 cells transfected with GST-Id2, GFP-cdh1 and increasing amounts of myc-Akt (2 or 4 μg); lysates subjected to GST pull-down.

Protein sequences, listed by entry. Tags and fused reporters are not part of them. Lines headed by an entry give the natural chain unless they say otherwise; changes in a name come on top. Residues count along the entry.
UniProt P31749: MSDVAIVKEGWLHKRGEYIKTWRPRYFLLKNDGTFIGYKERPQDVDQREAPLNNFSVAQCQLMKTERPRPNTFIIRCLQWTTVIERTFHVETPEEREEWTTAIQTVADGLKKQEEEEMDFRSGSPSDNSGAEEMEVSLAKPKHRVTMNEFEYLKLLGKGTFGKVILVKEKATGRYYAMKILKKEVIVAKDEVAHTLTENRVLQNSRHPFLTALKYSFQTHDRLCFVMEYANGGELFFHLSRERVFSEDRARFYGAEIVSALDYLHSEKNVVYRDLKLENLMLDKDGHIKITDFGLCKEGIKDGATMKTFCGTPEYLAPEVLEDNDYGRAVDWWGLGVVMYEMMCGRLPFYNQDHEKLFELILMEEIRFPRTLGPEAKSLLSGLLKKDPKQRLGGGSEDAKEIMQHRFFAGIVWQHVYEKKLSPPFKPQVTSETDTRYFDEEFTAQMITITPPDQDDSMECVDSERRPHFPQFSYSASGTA
mammalian GST-Akt fragment: PH domain of Akt: residues 5-108 of P31749
UniProt Q9UM11: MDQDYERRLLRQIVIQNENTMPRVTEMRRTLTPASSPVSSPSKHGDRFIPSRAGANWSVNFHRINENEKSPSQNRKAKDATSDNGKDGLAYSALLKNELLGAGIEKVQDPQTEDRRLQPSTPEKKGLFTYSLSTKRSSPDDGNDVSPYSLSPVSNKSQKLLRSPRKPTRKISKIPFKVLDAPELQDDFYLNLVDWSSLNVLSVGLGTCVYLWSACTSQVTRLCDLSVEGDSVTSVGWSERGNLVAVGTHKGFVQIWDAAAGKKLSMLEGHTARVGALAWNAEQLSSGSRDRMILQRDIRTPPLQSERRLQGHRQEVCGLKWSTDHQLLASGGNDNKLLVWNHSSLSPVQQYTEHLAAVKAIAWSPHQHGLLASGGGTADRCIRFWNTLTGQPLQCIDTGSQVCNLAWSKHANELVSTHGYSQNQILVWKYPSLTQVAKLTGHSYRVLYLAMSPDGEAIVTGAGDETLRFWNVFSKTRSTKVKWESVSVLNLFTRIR
UniProt P26043: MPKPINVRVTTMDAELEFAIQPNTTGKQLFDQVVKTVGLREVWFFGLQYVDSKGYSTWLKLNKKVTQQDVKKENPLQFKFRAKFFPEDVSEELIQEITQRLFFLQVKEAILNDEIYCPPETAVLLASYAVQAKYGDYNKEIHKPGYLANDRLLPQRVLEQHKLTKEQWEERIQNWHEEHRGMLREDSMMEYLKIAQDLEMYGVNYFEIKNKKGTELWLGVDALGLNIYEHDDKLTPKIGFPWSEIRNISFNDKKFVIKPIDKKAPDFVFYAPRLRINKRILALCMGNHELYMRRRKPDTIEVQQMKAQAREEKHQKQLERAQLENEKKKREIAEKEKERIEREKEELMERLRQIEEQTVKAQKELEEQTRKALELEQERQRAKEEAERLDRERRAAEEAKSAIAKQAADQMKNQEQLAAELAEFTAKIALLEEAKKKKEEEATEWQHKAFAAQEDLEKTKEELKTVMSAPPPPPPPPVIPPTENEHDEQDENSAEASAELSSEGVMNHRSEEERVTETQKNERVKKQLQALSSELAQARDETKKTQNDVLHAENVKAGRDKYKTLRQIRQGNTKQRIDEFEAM

The target of test [2] is T2, purified glutathione S-transferase (GST)-Id2 protein (UniProt P41136).
T2 sequence: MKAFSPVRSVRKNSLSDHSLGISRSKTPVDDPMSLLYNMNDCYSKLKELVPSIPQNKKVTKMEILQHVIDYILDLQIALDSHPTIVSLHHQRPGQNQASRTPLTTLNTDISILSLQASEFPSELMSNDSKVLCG
Kind of test: pull-down; lysates of PC12 cells transfected with myc-Akt incubated with purified GST-Id proteins and GST-beads for 3 hr at 4°C with gentle agitation; only the target purified.

For the next test, the target named is T3, purified GST-Id4 (UniProt P41139).
T3 sequence: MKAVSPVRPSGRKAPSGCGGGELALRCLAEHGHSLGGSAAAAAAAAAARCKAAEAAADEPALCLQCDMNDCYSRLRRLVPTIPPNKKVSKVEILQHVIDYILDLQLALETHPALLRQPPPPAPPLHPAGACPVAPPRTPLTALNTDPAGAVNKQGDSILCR
The description is as above.

For a further test, the target named is T4, purified GST-Id3 (UniProt P41133).
T4 sequence: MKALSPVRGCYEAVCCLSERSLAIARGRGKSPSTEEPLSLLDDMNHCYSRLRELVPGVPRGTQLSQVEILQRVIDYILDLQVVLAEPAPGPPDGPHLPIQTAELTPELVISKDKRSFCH
The test is described as above.

The next test addresses T5, purified GST-Id1 (UniProt P20067).
T5 sequence: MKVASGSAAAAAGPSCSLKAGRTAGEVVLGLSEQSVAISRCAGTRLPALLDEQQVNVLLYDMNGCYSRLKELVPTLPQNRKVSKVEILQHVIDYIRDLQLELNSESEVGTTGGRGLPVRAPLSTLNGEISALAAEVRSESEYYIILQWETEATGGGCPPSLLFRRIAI
Described as above.

In a further test the target is Flag-Akt1 (UniProt P31749). Briefly: co-IP; Flag-Akt1, 2 or 3 transfected into HEK293T cells together with GFP-Id2; anti-Flag IP followed by IB.
In a further test the target is HA-Cdh1 (UniProt Q9UM11). Briefly: co-IP; HA-cdh1 co-transfected with GFP-Id2 WT or mutants into 293T cells (legend; text says PC12); IP with HA antibody, Id2 detected by anti-GFP antibody.
For another test, the target named is GST-radixin (UniProt P26043). Kind of test: pull-down; GST pull-down using lysates of PC12 cells transfected with GST-radixin and Id2 constructs (called in vitro binding assay); also with depletion of Akt by shRNA.
The next test deals with T6, HA-E47 (UniProt P15923).
T6 sequence: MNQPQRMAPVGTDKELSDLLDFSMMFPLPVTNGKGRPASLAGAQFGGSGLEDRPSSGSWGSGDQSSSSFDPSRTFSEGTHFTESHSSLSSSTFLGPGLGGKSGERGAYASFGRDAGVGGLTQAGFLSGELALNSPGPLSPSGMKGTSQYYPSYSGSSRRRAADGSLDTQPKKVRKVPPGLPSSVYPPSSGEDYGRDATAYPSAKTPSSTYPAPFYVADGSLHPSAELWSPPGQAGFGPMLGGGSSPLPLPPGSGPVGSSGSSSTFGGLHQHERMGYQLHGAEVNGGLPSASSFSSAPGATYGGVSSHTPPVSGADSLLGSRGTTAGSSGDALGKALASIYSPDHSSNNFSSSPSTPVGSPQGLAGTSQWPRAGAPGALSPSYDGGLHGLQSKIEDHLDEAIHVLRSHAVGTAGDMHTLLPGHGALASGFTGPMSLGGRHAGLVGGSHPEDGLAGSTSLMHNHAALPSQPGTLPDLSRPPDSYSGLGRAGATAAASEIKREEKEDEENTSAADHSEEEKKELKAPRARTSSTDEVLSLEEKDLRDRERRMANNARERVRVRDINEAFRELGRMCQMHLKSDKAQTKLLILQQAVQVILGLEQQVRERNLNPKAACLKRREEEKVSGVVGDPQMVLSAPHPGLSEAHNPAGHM
Kind of test: co-IP; HA-E47 co-transfected with GFP-Id2 WT or mutants into PC12 cells; immunoprecipitation with anti-HA antibody.

The target in test [3] is mammalian GST-Akt fragment: PH domain of Akt (UniProt P31749). Kind of test: pull-down; Flag-Id2 co-transfected with mammalian GST-Akt fragments into 293T cells; lysates subjected to GST pull-down and IB.

These are yes or no findings as the source states them, for the method shown. In cells and extracts the contact can be indirect. Some entries that bind do so weakly or less than the wild type. Sequences can lack the tags named with a protein.

Regarding “myc-Akt (from UniProt P31749 1-480) (enzyme)”, the binding entry (in [1]; in test [2]; with purified GST-Id4; with purified GST-Id3; in the test with purified GST-Id1) was “binds” each time.
As to GFP-Cdh1 (from UniProt Q9UM11 1-496), the binding result in [1] was “binds”.

B1: GFP-Id2 WT (HEK293T) (protein, UniProt P41136 1-134)
chain: MKAFSPVRSVRKNSLSDHSLGISRSKTPVDDPMSLLYNMNDCYSKLKELVPSIPQNKKVTKMEILQHVIDYILDLQIALDSHPTIVSLHHQRPGQNQASRTPLTTLNTDISILSLQASEFPSELMSNDSKVLCG
For B1, the binding entry was “binds” with Flag-Akt1 and “binds weakly” in the test with HA-Cdh1.

B2: GFP-Id2 WT (PC12) (protein, UniProt P41136 1-134)
chain: MKAFSPVRSVRKNSLSDHSLGISRSKTPVDDPMSLLYNMNDCYSKLKELVPSIPQNKKVTKMEILQHVIDYILDLQIALDSHPTIVSLHHQRPGQNQASRTPLTTLNTDISILSLQASEFPSELMSNDSKVLCG
B2: the binding result with GST-radixin and with HA-E47 was “binds” in each case.

B3: Id2-V68P (HLH domain mutant) (protein, UniProt P41136 1-134)
chain: MKAFSPVRSVRKNSLSDHSLGISRSKTPVDDPMSLLYNMNDCYSKLKELVPSIPQNKKVTKMEILQHPIDYILDLQIALDSHPTIVSLHHQRPGQNQASRTPLTTLNTDISILSLQASEFPSELMSNDSKVLCG
As to B3, the binding result in the test with HA-E47 was “no binding”.

B4: GFP-Id2 S14A (293T) (protein, UniProt P41136 1-134)
chain: MKAFSPVRSVRKNALSDHSLGISRSKTPVDDPMSLLYNMNDCYSKLKELVPSIPQNKKVTKMEILQHVIDYILDLQIALDSHPTIVSLHHQRPGQNQASRTPLTTLNTDISILSLQASEFPSELMSNDSKVLCG
For B4, the binding result with HA-Cdh1 was “binds”.

B5: GFP-Id2 S14D (293T) (protein, UniProt P41136 1-134)
chain: MKAFSPVRSVRKNDLSDHSLGISRSKTPVDDPMSLLYNMNDCYSKLKELVPSIPQNKKVTKMEILQHVIDYILDLQIALDSHPTIVSLHHQRPGQNQASRTPLTTLNTDISILSLQASEFPSELMSNDSKVLCG
Regarding B5, the binding result in the test with HA-Cdh1 was “binds weakly”.

B6: Flag-Id2 (protein, UniProt P41136 1-134)
chain: MKAFSPVRSVRKNSLSDHSLGISRSKTPVDDPMSLLYNMNDCYSKLKELVPSIPQNKKVTKMEILQHVIDYILDLQIALDSHPTIVSLHHQRPGQNQASRTPLTTLNTDISILSLQASEFPSELMSNDSKVLCG
As for B6, the binding result in [3] is reported as “binds”.

B7: GFP-Id2 S14D (PC12) (protein, UniProt P41136 1-134)
chain: MKAFSPVRSVRKNDLSDHSLGISRSKTPVDDPMSLLYNMNDCYSKLKELVPSIPQNKKVTKMEILQHVIDYILDLQIALDSHPTIVSLHHQRPGQNQASRTPLTTLNTDISILSLQASEFPSELMSNDSKVLCG
For the molecule B7, the binding result in the test with HA-E47 is reported as “binds”.

B8: Id2-P51S (HLH domain mutant) (protein, UniProt P41136 1-134)
chain: MKAFSPVRSVRKNSLSDHSLGISRSKTPVDDPMSLLYNMNDCYSKLKELVSSIPQNKKVTKMEILQHVIDYILDLQIALDSHPTIVSLHHQRPGQNQASRTPLTTLNTDISILSLQASEFPSELMSNDSKVLCG
Consider B8, for which the binding result in the test with HA-E47 was “no binding”.

B9: GFP-Id2 S14A (PC12) (protein, UniProt P41136 1-134)
chain: MKAFSPVRSVRKNALSDHSLGISRSKTPVDDPMSLLYNMNDCYSKLKELVPSIPQNKKVTKMEILQHVIDYILDLQIALDSHPTIVSLHHQRPGQNQASRTPLTTLNTDISILSLQASEFPSELMSNDSKVLCG
Turning to B9, the binding entry in the test with HA-E47 is “binds”.

Values taken from publication PMC5153247.
